Not every detail of the peptide structures is certain; ends, links or a residue may be inferred. Bridge positions count the residues as written; N and C are the ends. Square brackets hold non-standard residues; d marks the D form. Ends that are not written are not given here. * marks the point of attachment. Palmitoyl = CCCCCCCCCCCCCCCC(=O)*; Myristoyl = CCCCCCCCCCCCCC(=O)*; Nle = CCCC[C@H](N)C(=O)O; Octanoyl = CCCCCCCC(=O)*
Columns and labels:
[1] = test system: presenilin enhancer 2 (PEN2) and presenilin 1 (PS1); experiment: iPSC in-vitro model of neurodegeneration, γ-secretase components by western blot; assay type: cell-based, human; conditions: 1x10^-7 M, 48 hours, iPSC from patient with familial form of AD
Tau = experiment: Hypothermia-induced Tau hyperphosphorylation in HT22 cells by western blot; assay type: cell-based; conditions: 1x10^-7 M, 2 hours at 30 °C
[2] = test system: binding site in PC12 cells; experiment: Competitive binding experiments, displacement of 125I-CART(61-102) on PC12 cells; parameters: species or system rat; conditions: for % binding CART(61-102): affinity relative to CART(61-102) = 100, PC12 cells; for Ki: displacement of 125I-CART(61-102), PC12 cells, mean ± SEM, n = 3 experiments in duplicates
CREB = experiment: Cellular signaling in PC12 cells, CREB phosphorylation by western blot; assay type: cell-based, rat; conditions: 1x10^-7 M, 10 min, 37 °C, vs vehicle (blank)
C57BL/6 male mice = experiment: Test of food intake after SC administration to fasted mice; assay type: in vivo; conditions: fasted C57BL/6 mice, vs saline
c-Fos = experiment: Fos immunohistochemistry after SC administration; assay type: in vivo; conditions: overnight fasted mice, SC 10 mg/kg, 90 min after injection, vs saline
DIO mice = experiment: 14-day administration in diet-induced obesity model; assay type: in vivo; conditions: SC 5 mg/kg once daily for 14 days, vs saline
MSG mice = experiment: 21-day administration in MSG-induced obesity model: body weight and biochemical parameters; assay type: in vivo; conditions: 6-month-old MSG mice, SC 10 mg/kg once a day for 21 days; fasted; vs MSG saline
hippocampi of MSG mice = experiment: 21-day administration in MSG mice: western blot of hippocampal lysates; assay type: in vivo; conditions: SC 10 mg/kg, 21 days
PC12 cells = experiment: Markers of synaptic plasticity in PC12 cells by western blot; assay type: cell-based, rat; conditions: 1x10^-7 M, 360 min incubation, vs vehicle
[3] = listed as Palmitoylated CARTp analog, 5 mg/kg

KYGQVPMCDAGEQCAVRKGARIGKLCDCPRGTSCNSFLLKCL (disulfide 8-26, 14-34, 28-41) [CART(61-102), reference compound]
amount of presenilin 1 (PS1) [1]: but not
amount of presenilin enhancer 2 (PEN2) [1]: but not
Tau phosphorylation at Thr212 (Tau): not with
% binding CART(61-102) [2]: 100%
Ki [2]: 9.33 ± 4.37 nM
phosphorylation of CREB at Ser133 (CREB): did not increase

KYGQVP[Nle]ADAGEQCAVRKGARIGKLADCPRGTSCNSFLLKCL (disulfide 14-34, 28-41) [CART 2S-S, reference compound]
% binding CART(61-102) [2]: 3.5%
Ki [2]: 261 ± 210 nM
food intake (C57BL/6 male mice; 10 mg/kg (Fig. 5A)): able to decrease significantly food intake in fasted mice unlike non lipidized CART 2S-S
c-Fos immunoreactivity (neural activity) in Arc, PVN (c-Fos): unlike

Palmitoyl-KYGQVP[Nle]ADAGEQCAVRKGARIGKLCDAPRGTSCNSFLLKCL (disulfide 14-34, 26-41) [Palm-CART [74-94, 86-101]]
% binding CART(61-102) [2]: 0.85%
ability to bind to PC12 cells ([2]; compared with CART(61-102)): three order of magnitude lower
Ki [2]: 1090 ± 694 nM

Octanoyl-KYGQVP[Nle]ADAGEQCAVRKGARIGKLADCPRGTSCNSFLLKCL (disulfide 14-34, 28-41) [Oct-CART]
% binding CART(61-102) [2]: 12%
Ki [2]: 76.1 ± 17.7 nM

Palmitoyl-KYGQVP[Nle]ADAGEQCAVRKGARIGKLADCPRGTSCNSFLLKCL (disulfide 14-34, 28-41) [Palm-CART]
BW change (DIO mice; 5 mg/kg): significantly decreased
food intake (DIO mice; 5 mg/kg): significantly decreased
BW change (DIO mice; [3]): lowering
food intake (DIO mice; [3]): lowering
Glucose (MSG mice): 7.53 ± 0.46 mmol/L
amount of presenilin 1 (PS1) [1]: significantly reduced
amount of presenilin enhancer 2 (PEN2) [1]: significantly reduced
Tau phosphorylation at Ser404 (hippocampi of MSG mice): attenuated
Tau phosphorylation at Thr212 (hippocampi of MSG mice): attenuated
level of post-synaptic marker PSD95 (hippocampi of MSG mice): increased
level of pre-synaptic marker syntaxin 1A (hippocampi of MSG mice): increased
methylation (PP2A) at Leu309 (hippocampi of MSG mice): increased
phosphorylation of GSK-3β at Tyr216 (hippocampi of MSG mice): decreased
PP2A methylation at Leu309 (Tau): increased
Tau phosphorylation at Thr212 (Tau): attenuated
% binding CART(61-102) [2]: 652%
Ki [2]: 1.43 ± 0.41 nM
food intake (C57BL/6 male mice; dose of 1 mg/kg (Fig. 5B)): significant
c-Fos immunoreactivity (neural activity) in Arc, PVN (c-Fos; 10 mg/kg): significantly increased
c-Fos immunoreactivity (neural activity) in Arc, PVN (c-Fos; listed as palmitoylated CARTp analog, 10 mg/kg): increased
phosphorylation of CREB at Ser133 (CREB): significantly increased
level of post-synaptic density protein 95 (PSD95) (PC12 cells): significantly increased
level of spinophilin (PC12 cells): significantly increased
level of synaptophysin (PC12 cells): significantly increased

Myristoyl-KYGQVP[Nle]ADAGEQCAVRKGARIGKLADCPRGTSCNSFLLKCL (disulfide 14-34, 28-41) [Myr-CART]
BW change (DIO mice): significantly decreased
% binding CART(61-102) [2]: 78%
Ki [2]: 12.1 ± 3.4 nM
